In PubChem BioAssay AID1345083 (National Center for Advancing Translational Sciences (NCATS), 2018):
Screen size: about 94,000 compounds; about 6,200 (6.6%) were called active. Inconclusive means that the source gave no clear call. Such entries were picked first, then a sample of the others. Calls come from the whole dose curve; as a rule, active = well fitted inhibition curve with a large enough effect; inconclusive = small, poorly fitted or top-dose-only effect; inactive = flat fitted curve, though single readings scatter. Where the call is inconclusive, the potency comes from a doubtful curve fit.

Assay: Cytotoxic Profiling in HEK 293 Cell Line of Diverse Libraries Using Quantitative High-Throughput Screening; note: nearly all actives have a fitted effect of over 60% in size
Conditions: HEK 293 viability, ATP luminescence (CellTiter-Glo), 48-72 h; series mostly up to 115 µM
Procedure, shortened: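 Read-out: CellTiter-Glo ATP luminescence. Cells: HEK 293, 250 cells/well. Exposure: 48 or 72 hr, 37 degree Celsius.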
Potency is the fitted concentration of half-maximal effect; tags give direction and shape of the fitted curve.

For `Cc1ccc(C)c(NC(=O)N2CCCC(c3noc(COc4ccccc4F)n3)C2)c1` (centres undefined), which Potency is on record?
Its Potency is inconclusive: 39.8 µM [inhibitor, full curve, poor fit].

For `COc1ccc(C(=O)N2C[C@@H]3CCCN4CCC[C@@H]([C@H]34)[C@H]2CCCC(=O)N2CCOCC2)cc1`, which Potency is on record?
Its Potency is “inactive”.

For `CC(C)c1noc(-c2cn(C3CCN(C(=O)c4ccc(C#N)cc4)C3)nn2)n1` (centres undefined), which Potency is on record?
The Potency was inconclusive: 39.8 µM [inhibitor, partial curve].

With `Cn1nccc1C(=O)NCC1Cc2cc(-c3cccc(OC(F)(F)F)c3)ccc2O1` (centres undefined) as the compound, how does the Potency read?
Its Potency is inconclusive: 39.8 µM [inhibitor, partial curve, poor fit].

Which Potency does the source give for `O=C1CCCCC(Cc2ccccc2)(C(=O)Nc2cccc(F)c2)N1` (centres undefined) here?
The Potency was inconclusive: 100 µM [inhibitor, single point].

For `O=C(c1ccccc1)N1C[C@H]2OC(=O)N(CCCN3CCOCC3)[C@H]2C1`, which Potency is on record?
The Potency was “inactive”.

For `N[C@@H]1CCN(Cc2ccccc2OCc2ccc(Cl)cc2)C[C@H]1O`, which Potency is on record?
The Potency was active: 22.4 µM.

With `CN1CC2(CCN(C(=O)c3ccccc3F)CC2)CC(c2ccccc2)C1=O` (centres undefined) as the compound, how does the Potency read?
The Potency was “inactive”.

For `CN(C)c1ccc(NC(=O)c2ccc3c(c2)N(C)C2CCCCN2C3=O)cc1` (centres undefined), which Potency is on record?
Its Potency is inconclusive: 50.1 µM [inhibitor, partial curve, poor fit].

With `Cc1ccc(-c2ccc3nnc(CNC(=O)c4ccc(F)cc4)n3n2)cc1` as the compound, how does the Potency read?
The Potency was inconclusive: 89.1 µM [inhibitor, single point].

For `COCc1cc(C[C@@H]2CC[C@H](O)[C@@H](CNC(=O)NC3CCCCC3)O2)no1`, which Potency is on record?
Its Potency is “inactive”.

For `Cc1cccc(-n2nc(C)c(CCC(=O)N3CCOCC3)c2Oc2ccccc2C)c1`, which Potency is on record?
Its Potency is inconclusive: 44.7 µM [inhibitor, partial curve, poor fit].

For `COc1ccc(-c2cc(N3CCC(NC(=O)Cc4ccccc4)CC3)n[nH]2)cc1`, which Potency is on record?
Its Potency is inconclusive: 89.1 µM [inhibitor, single point].

With `CS(=O)(=O)N[C@H]1C[C@H]2C(=O)Nc3ccc(-c4ccc(F)cc4F)cc3C(=O)N2C1` as the compound, how does the Potency read?
Its Potency is inconclusive: 112 µM [inhibitor, single point].

For `COc1ccccc1C(=O)NC1CCCc2c1[nH]c1c(Cl)cccc21` (centres undefined), which Potency is on record?
Its Potency is inconclusive: 7.94 µM [inhibitor, full curve, poor fit].

With `COc1ccc(N2CC(C(=O)NCc3ccc(F)cc3)NC2=O)cc1` (centres undefined) as the compound, how does the Potency read?
The Potency was “inactive”.

Which Potency does the source give for `O=C(C1CCCC1)N1CCC(c2noc(-c3ccccc3)n2)C1` (centres undefined) here?
Its Potency is inconclusive: 79.4 µM [inhibitor, partial curve, poor fit].

Which Potency does the source give for `COc1cccc(C(=O)NC2CCN(c3nccc(Nc4ccccc4F)n3)CC2)c1` here?
Its Potency is inconclusive: 89.1 µM [inhibitor, partial curve, poor fit].

For `CC(C)c1cc(C(=O)N2CC[C@H](CO)[C@H](O)C2)cs1`, which Potency is on record?
Its Potency is “inactive”.

With `O=C(c1ccco1)N1CCCC(CCc2cccc(F)c2)C1` (centres undefined) as the compound, how does the Potency read?
The Potency was active: 79.4 µM.

For `C[C@]12CC[C@H](O)CC1=CCN(Cc1cccc(OC(F)(F)F)c1)C2`, which Potency is on record?
The Potency was inconclusive: 89.1 µM [inhibitor, single point].

Which Potency does the source give for `COc1ccc(-c2cc(N3CCCC3)nc(N)n2)c2ccc(C)nc12` here?
Its Potency is inconclusive: 28.2 µM [inhibitor, full curve, poor fit].

Which Potency does the source give for `O=C(Nc1ccc(Cl)cc1)NC1CCCN(c2ccc3nnc(C4CC4)n3n2)C1` (centres undefined) here?
The Potency was inconclusive: 89.1 µM [inhibitor, single point].

Which Potency does the source give for `CCn1ncc(CN2C[C@@H](COCC3CC3)[C@H](c3ccccn3)C2)c1C` here?
The Potency was inconclusive: 20 µM [inhibitor, full curve, poor fit].

Which Potency does the source give for `COc1cccc(C2Cn3nnc(-c4nc(-c5ccc(OC)c(F)c5)no4)c3CO2)c1` (centres undefined) here?
Its Potency is inconclusive: 50.1 µM [inhibitor, partial curve, poor fit].

For `O=C(NC1CCN(c2ccnc3ccnn23)CC1)c1ccc(Cl)nc1`, which Potency is on record?
Its Potency is inconclusive: 89.1 µM [inhibitor, single point].

With `O=C(Cc1cccc(Cl)c1)NCCNC(=O)c1cccc(-c2ccc(C(F)(F)F)cc2)c1` as the compound, how does the Potency read?
The Potency was inconclusive: 17.8 µM [inhibitor, partial curve, poor fit].

With `COc1ccc(CC(=O)N2CC(N3C(=O)c4c(c(C)nn4-c4ccccc4)C3C)C2)cc1` (centres undefined) as the compound, how does the Potency read?
The Potency was active: 39.8 µM.

Which Potency does the source give for `Cc1ccccc1CN1CCc2ncc(C(=O)NCCOc3ccccc3)n2CC1` here?
Its Potency is active: 79.4 µM.

With `Cc1noc(C)c1CC(=O)NCC1CCN(c2cc(-c3ccc(F)cc3)[nH]n2)CC1` as the compound, how does the Potency read?
The Potency was inconclusive: 89.1 µM [inhibitor, single point].

With `O=C1NCC(=O)N2CC3(CCN(S(=O)(=O)c4ccccc4)CC3)CC12` (centres undefined) as the compound, how does the Potency read?
The Potency was “inactive”.

With `CN(Cc1ccccc1)C(=O)c1ccnc(-c2nnc3ccc(Nc4ccccc4)nn23)c1` as the compound, how does the Potency read?
Its Potency is active: 20 µM.

For `COCCN1CC(CO)C2(CCN(C(=O)Cc3ccccc3C)CC2)C1` (centres undefined), which Potency is on record?
Its Potency is inconclusive: 56.2 µM [inhibitor, partial curve, poor fit].

For `CNC(=O)[C@H]1CN(C(=O)COc2ccccc2)[C@]2(C)C(=O)N(CC3CC3)c3ccccc3[C@H]12`, which Potency is on record?
Its Potency is inconclusive: 39.8 µM [inhibitor, partial curve, poor fit].

Which Potency does the source give for `CCn1ccc(C(=O)N2CCC3(CC2)c2[nH]c4ccc(OC)cc4c2CCN3C)n1` here?
The Potency was “inactive”.

Which Potency does the source give for `COc1ccc(C2Cn3nnc(C(=O)N4CCN(C(=O)Cc5ccccc5C)CC4)c3CO2)cc1` (centres undefined) here?
Its Potency is inconclusive: 44.7 µM [inhibitor, partial curve, poor fit].

For `c1ccc(COc2ccc(CN3CCN(C4CCNC4)CC3)cc2)cc1` (centres undefined), which Potency is on record?
The Potency was inconclusive: 50.1 µM [inhibitor, partial curve, poor fit].

With `O=C(c1ccncc1)N1CCN(c2ccnc3ccnn23)CC1` as the compound, how does the Potency read?
Its Potency is “inactive”.

For `COc1ccc(C2Cn3cnc(-c4nc(-c5cccs5)no4)c3CO2)cc1` (centres undefined), which Potency is on record?
The Potency was inconclusive: 56.2 µM [inhibitor, partial curve, poor fit].

Which Potency does the source give for `COc1ccc(Nc2cc3c(cn2)CN(CCc2ccccc2)CCN3)cn1` here?
The Potency was active: 63.1 µM.

With `CC1(C)C[C@H](NCC2CCCCC2)[C@@]2(CCC(=O)NC3CC3)CC[C@](C)(O)C[C@@H]12` as the compound, how does the Potency read?
The Potency was “inactive”.

With `O=C(Nc1ccccc1F)N1CCN(c2ccc3nnc(C4CC4)n3n2)CC1` as the compound, how does the Potency read?
The Potency was inconclusive: 56.2 µM [inhibitor, partial curve, poor fit].

Which Potency does the source give for `COc1ccc(CN2C[C@H](O)C[C@H]2c2nc(Cc3ccc(F)cc3Cl)no2)c2ccccc12` here?
Its Potency is inconclusive: 79.4 µM [inhibitor, partial curve, poor fit].

Which Potency does the source give for `CCOC(=O)C1=C(C)N=C2SC=C(CC(=O)N3CCC(C)CC3)N2C1c1ccccc1F` (centres undefined) here?
The Potency was active: 39.8 µM.

With `CC(=O)NCC(=O)N1CCCC(n2cc(-c3nc(-c4ccccc4)no3)nn2)C1` (centres undefined) as the compound, how does the Potency read?
The Potency was “inactive”.

Which Potency does the source give for `Cc1ccc(C)c(NC(=O)Cn2nc3n(c2=O)CCCCC3)c1` here?
Its Potency is “inactive”.

For `CN(C)C(=O)c1ccc2c(c1)n(Cc1ccc(F)cc1)c(=O)c1ccnn12`, which Potency is on record?
The Potency was “inactive”.

Which Potency does the source give for `CCN(CC)c1ccc(C(=O)NCc2nnc3cc(-c4nc(C)no4)ccn23)cc1` here?
The Potency was inconclusive: 6.31 µM [inhibitor, full curve, poor fit].

With `O=C(c1n[nH]c2c1CCCC2)N1CCC2(CC1)NC(=O)N(c1ccccc1)N2` as the compound, how does the Potency read?
Its Potency is inconclusive: 20 µM [inhibitor, partial curve, poor fit].

For `Cc1nn(-c2ccccc2)c2c1C(C1CC1)N(C1CN(C(=O)c3ccc(Cl)cc3)C1)C2=O` (centres undefined), which Potency is on record?
Its Potency is inconclusive: 20 µM [inhibitor, full curve, poor fit].

For `CC1(c2ccccc2)N(Cc2cccnc2)C(=O)OC12CCN(Cc1ccc3c(c1)CCO3)CC2` (centres undefined), which Potency is on record?
Its Potency is inconclusive: 79.4 µM [inhibitor, partial curve].

With `CCCCC1C=CCN1S(=O)(=O)c1cccc(C(=O)NCC(F)(F)F)c1` (centres undefined) as the compound, how does the Potency read?
The Potency was inconclusive: 79.4 µM [inhibitor, partial curve, poor fit].

For `Cn1ncc2c(C(=O)NCCNC(=O)OC(C)(C)C)cc(-c3ccccc3C(F)(F)F)nc21`, which Potency is on record?
Its Potency is inconclusive: 79.4 µM [inhibitor, partial curve, poor fit].

Which Potency does the source give for `CCOc1ccccc1C(=O)N1CCC[C@H]1c1nc(-c2ccc(C)cc2)no1` here?
Its Potency is inconclusive: 50.1 µM [inhibitor, partial curve, poor fit].

With `O=C(c1cccc(C(F)(F)F)c1)N1CCN(CCCn2nc3n(c2=O)CCCC3)CC1` as the compound, how does the Potency read?
The Potency was “inactive”.

Which Potency does the source give for `CCc1ccccc1OCCN(C)Cc1ncc[nH]1` here?
Its Potency is “inactive”.

With `CC(=O)N[C@H]1CC[C@]2(C)CC[C@@H]([C@H](C)C(=O)NC(C)(C)C)[C@H](O)[C@H]2[C@@H]1C` as the compound, how does the Potency read?
The Potency was “inactive”.

For `CCOc1ccc(C(=O)N2CCC3(CC2)N=C(c2ccc(C)cc2)NO3)cc1`, which Potency is on record?
Its Potency is inconclusive: 89.1 µM [inhibitor, single point].

For `COc1ccccc1CCN1CCCC(CN(C)C(=O)Nc2ccccc2)C1` (centres undefined), which Potency is on record?
The Potency was inconclusive: 100 µM [inhibitor, single point].

With `O=C(c1cc(Cl)ccc1Cl)N1CCN(c2cc(-c3cccs3)[nH]n2)CC1` as the compound, how does the Potency read?
The Potency was active: 44.7 µM.

With `NC(=O)Cc1c[nH]c2ncc(-c3ccc(F)c(Cl)c3)cc12` as the compound, how does the Potency read?
The Potency was inconclusive: 100 µM [inhibitor, partial curve, poor fit].

Which Potency does the source give for `O=C1NCc2ccccc2CC12CCCCN2Cc1cc2ccccc2o1` (centres undefined) here?
The Potency was inconclusive: 56.2 µM [inhibitor, partial curve, poor fit].

With `COc1ccc(-c2ccc(C(=O)N3CCN([S+](=O)([O-])c4cccs4)CC3)cc2)nn1` as the compound, how does the Potency read?
The Potency was inconclusive: 44.7 µM [inhibitor, partial curve].

With `Cc1cccc(CC(=O)N2CC(c3nc(CCc4ccccc4)no3)C2)c1` as the compound, how does the Potency read?
Its Potency is inconclusive: 79.4 µM [inhibitor, single point].
